# Experimental data: publication PMC4336329 (PLoS ONE, 2015)
# In all, about 310,000 compounds went through this assay and about 14,000 (4.5%) showed an effect of 50% or more. Effects have a minus sign here. The list shows a part of the results.
# Target: human ether-à-go-go-related gene (hERG) potassium channel (human, UniProt Q12809)
# Test: primary screen, population patch clamp on CHO cells stably expressing hERG
# 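Also: peak tail current of the secondary pulse compared with the same well before compound.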
# Chain of human ether-à-go-go-related gene (hERG) potassium channel (Q12809 whole entry, looked up): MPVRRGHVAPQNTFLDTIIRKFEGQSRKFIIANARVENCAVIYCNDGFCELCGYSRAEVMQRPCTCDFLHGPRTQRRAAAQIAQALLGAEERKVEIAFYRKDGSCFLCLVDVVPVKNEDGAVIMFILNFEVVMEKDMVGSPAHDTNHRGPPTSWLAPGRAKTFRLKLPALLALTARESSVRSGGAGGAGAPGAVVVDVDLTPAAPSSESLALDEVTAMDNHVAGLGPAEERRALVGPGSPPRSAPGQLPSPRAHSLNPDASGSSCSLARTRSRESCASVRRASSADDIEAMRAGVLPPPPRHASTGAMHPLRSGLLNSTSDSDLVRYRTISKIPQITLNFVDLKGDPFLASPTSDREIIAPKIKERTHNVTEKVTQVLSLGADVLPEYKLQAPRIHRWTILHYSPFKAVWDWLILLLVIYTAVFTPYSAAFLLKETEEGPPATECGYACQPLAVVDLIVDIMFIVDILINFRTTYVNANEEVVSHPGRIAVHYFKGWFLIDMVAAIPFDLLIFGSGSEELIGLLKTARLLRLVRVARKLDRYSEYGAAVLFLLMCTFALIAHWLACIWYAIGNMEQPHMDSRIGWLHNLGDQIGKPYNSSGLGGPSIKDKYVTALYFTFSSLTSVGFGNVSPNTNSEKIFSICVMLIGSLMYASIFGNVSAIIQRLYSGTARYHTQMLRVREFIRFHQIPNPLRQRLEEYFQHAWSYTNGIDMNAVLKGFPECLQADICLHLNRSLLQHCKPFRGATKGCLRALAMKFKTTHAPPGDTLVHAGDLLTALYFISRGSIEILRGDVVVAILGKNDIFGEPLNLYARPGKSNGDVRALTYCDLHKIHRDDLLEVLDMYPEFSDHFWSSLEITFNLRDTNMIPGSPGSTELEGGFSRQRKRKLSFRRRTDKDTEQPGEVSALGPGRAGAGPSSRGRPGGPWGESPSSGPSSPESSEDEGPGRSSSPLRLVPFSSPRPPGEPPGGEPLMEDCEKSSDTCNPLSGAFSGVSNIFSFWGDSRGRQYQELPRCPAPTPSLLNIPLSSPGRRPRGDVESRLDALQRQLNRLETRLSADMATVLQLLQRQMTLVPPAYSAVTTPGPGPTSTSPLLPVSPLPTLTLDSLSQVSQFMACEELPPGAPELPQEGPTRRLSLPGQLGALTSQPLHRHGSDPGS
row,Compound,"hERG current change (%, negative = inhibition) at 10uM [%]"
1,O=C1CSC(c2ccc(Cl)cc2Cl)N1c1ccccn1 (stereo not drawn),26
2,OC1(c2cccc(C(F)(F)F)c2)CCN(c2ccc(-c3ccccc3)nn2)CC1,6.04
3,Cc1ccc(CCNC(=O)C2CCC(=O)N2Cc2ccc(F)cc2)cc1 (stereo not drawn),6.62
4,COc1ccc(-c2c(C)nc3c(-c4ccc(F)cc4)cnn3c2N)cc1,22.8
5,O=C(c1ccccn1)c1ncc(C(F)(F)F)cc1Cl,17.7
6,CCCn1c(=NC(=O)CS(=O)(=O)c2ccccc2)sc2cc(S(C)(=O)=O)ccc21,-4.48
7,CC(C)n1c(N2CCN(C(=O)Nc3ccccc3)CC2)nc2ccccc21,-14.6
8,COc1ccc(C(=O)c2cn[nH]c2-c2cc(Cl)ccc2O)cc1,-16
9,CS(=O)(=O)N1CCN=C1SCc1ccc(F)cc1,14.7
10,CCNC(=O)COC(=O)CCNC(=O)c1ccc(Cl)cc1,23.9
11,CC(=O)Nc1cccc(-c2nc3ccc(NC(C)=O)cc3s2)c1,-1.41
12,O=C(CCc1nnc(CCCCc2ccccc2)o1)N1CCN(CCO)CC1,-0.0459
13,CN(C)CCCO/N=C(\c1ccccc1)c1ccncc1.O=C([O-])C(=O)[O-],5.25
14,O=S(=O)(Nc1nc2ccccc2nc1Nc1ccc2c(c1)OCO2)c1ccccc1,8.88
15,COc1ccccc1C(=O)N/N=C(\C)CC(=O)Nc1ccc(Nc2ccccc2)cc1,-4.31
16,COc1ccc(-c2cc(C(=O)Nc3c(C)nn(Cc4ccc(Cl)cc4)c3C)no2)cc1,-6.89
17,COCCn1c(-c2cccs2)nc2nc3ccccc3nc21,-11.2
18,CCCC[C@@H]1C[C@H]1[C@@H](NC(=O)c1ccccc1)c1ccccc1C(F)(F)F,3.61
19,Cc1ccc(-n2ncc3c(NCCCN4CCOCC4)ncnc32)c(C)c1,-10.3
20,O=C(CC(NCCN1CCOCC1)C(=O)O)Nc1cccc(Cl)c1 (stereo not drawn),26
21,Cc1ccccc1C(=O)NC(=S)Nc1ccc(N2CCOCC2)cc1,27.8
22,COC(=O)c1sc(NC(C)=O)c(C(=O)OC)c1C,-0.0772
23,O=C(Nc1cc(C(F)(F)F)ccc1N1CCOCC1)c1ccc(F)cc1,5.04
24,CC(=O)C1=NN(c2ccccc2)C(c2cccs2)N1c1ccc(N(C)C)cc1 (stereo not drawn),-2.44
